From US11123439B2, “Antibody drug conjugates (ADCS) and antibody prodrug conjugates (APDCS) with enzymatically cleavable groups” (Bayer Pharma Aktiengesellschaft, priority 2015, dated 2021) come the findings set out here.

In this experiment the target is TWEAKR (Homo sapiens, UniProt Q9NP84). Kind of experiment: Agonistic activity of anti-TWEAKR antibodies (NFκB reporter gene assay). It counts as cell-based. The note with it: all 11 antibodies identified (human IgG1). An excerpt: 11 different Fab phages were identified, and the corresponding antibodies were cloned into a mammalian EgG expression vector which provides the CH2-CH3 domains missing in the soluble FAb. Following identification of preferred antibodies, these were expressed as full-length IgGs. Aglycosylated variants of the antibodies described have been produced by introducing the mutations N297A or N297Q in the heavy chain of the respective antibodies. These constructs were expressed, for example, transiently in mammalian cells as described by Tom et al., Chapter 12 in Methods Express: Expression Systems edited by Micheal R. Dyson and Yves Durocher, Scion Publishing Ltd, 2007 (see AK-Example 1). The antibodies were purified by protein-A chromatography and characterized further by their binding affinity to soluble monomeric TWEAKR using ELISA and BIAcore analysis, as described in AK-Example 2. To determine the cell binding characteristics of the anti-TWEAKR antibodies, binding was tested by flow cytometry on a number of cell lines (HT29, HS68, HS578). NFκB reporter gene assays were carried out to examine the agonistic activity of all 11 antibodies identified (human IgG1). […] Lastly, 7 variants were selected on the basis of the elevated affinity compared to the best single substitution variant G102T. […]

B1: TPP-883: anti-TWEAKR antibody from phage library; "The antibody having the highest in vitro activity (TPP-883) was selected for further activity and affinity maturation" (antibody, listed as Homo Sapiens)
heavy: EVQLLESGGGLVQPGGSLRLSCAASGFTFSPYPMMWVRQAPGKGLEWVSYISPSGGKTHYADSVKGRFTISRDNSKNTLYLQMNSLRAEDTAVYYCARGGDGYFDYFDYWGQGTLVTVSSASTKGPSVFPLAPSSKSTSGGTAALGCLVKDYFPEPVTVSWNSGALTSGVHTFPAVLQSSGLYSLSSVVTVPSSSLGTQTYICNVNHKPSNTKVDKRV[skipping human IgG1 Fc]
light: AQDIQMTQSPATLSASVGDRVTITCRASQSISSYLNWYQQKPGKAPKLLIYAASSLQSGVPSRFSGSGSGTDFTLTISSLQPEDFATYYCQQSYSSPGITFGPGTKVEIKRTVAAPSVFIFPPSDEQLKSGTASVVCLLNNFYPREAKVQWKVDNALQSGNSQESVTEQDSKDSTYSLSSTLTLSKADYEKHKLYACEVTHQGLSSPVTKSFNRGEC
On to B1, for which the “in vitro activity (agonistic activity)” value is “highest in vitro activity”.
